# In PubChem BioAssay AID1347043 (National Center for Advancing Translational Sciences (NCATS), 2019):
# About 1,900 (2.5%) of roughly 76,000 compounds were called active. The inconclusive results got no clear call from the source; some entries with a clear call stand among them for comparison. The call rests on the fitted dose curve; in most records, active means well fitted inhibition curve with a large enough effect; inconclusive means small, poorly fitted or top-dose-only effect; inactive means flat fitted curve, though single readings scatter. Potencies beside an inconclusive call are fits to weak or partial responses and may not hold up.
# Biological target: Luciferin 4-monooxygenase (Photinus pyralis) (UniProt P08659)
# Chain of UniProt P08659 (P08659 whole entry, looked up): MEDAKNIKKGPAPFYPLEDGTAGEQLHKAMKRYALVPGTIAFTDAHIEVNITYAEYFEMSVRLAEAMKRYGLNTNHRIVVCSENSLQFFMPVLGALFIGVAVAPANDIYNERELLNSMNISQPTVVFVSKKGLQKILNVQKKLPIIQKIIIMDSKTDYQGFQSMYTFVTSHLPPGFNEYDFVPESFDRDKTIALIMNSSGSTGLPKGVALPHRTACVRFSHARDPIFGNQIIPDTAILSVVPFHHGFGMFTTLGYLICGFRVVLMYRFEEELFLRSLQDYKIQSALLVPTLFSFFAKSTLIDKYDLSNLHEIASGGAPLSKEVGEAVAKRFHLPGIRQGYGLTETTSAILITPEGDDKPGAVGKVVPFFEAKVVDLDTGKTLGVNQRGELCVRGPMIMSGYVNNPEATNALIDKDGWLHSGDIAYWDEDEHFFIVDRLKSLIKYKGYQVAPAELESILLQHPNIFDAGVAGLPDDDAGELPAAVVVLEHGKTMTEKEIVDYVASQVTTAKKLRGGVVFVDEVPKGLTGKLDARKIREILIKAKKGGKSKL
# Test: Firefly luciferase inhibition profiling of diverse chemical library using quantitative high-throughput screening; further: nearly all actives have a fitted effect of over 65% in size
# Details: purified P. pyralis luciferase, luminescence, biochemical; series mostly up to 115 µM
# Procedure, shortened: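 FLuc 10nM, D-luciferin 10uM, ATP 10uM, Mg acetate 10mM, Tris acetate pH 7.5, Tween/BSA; cpd qHTS; enzyme added last; CCD luminescence.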
# Potency means the concentration at half of the fitted maximal effect; tags describe the fitted curve by direction and shape.
row,Compound,Potency
1,COc1ccc(-c2noc([C@@H]3C[C@H](NC(=O)c4ccc(F)cc4)CN3C)n2)cc1,inactive
2,Cc1ccc(-c2cc3c(=O)n(CCNC(=O)c4ccc5ccccc5n4)ccn3n2)c(C)c1,"inconclusive: 10 µM [inhibitor, full curve]"
3,Cc1nn(-c2ccc(F)cc2)c(C)c1[C@@H]1C=C[C@@H](NC(=O)NC(C)C)C1,active: 63.1 µM
4,O=C(C1CCN(C(=O)N2CC3CC(C2)[C@H]2CCCC(=O)N2C3)CC1)N1CCc2ccccc2C1 (stereo partly specified),inactive
5,CC(=O)N1C[C@@H]2CCCN3CCC[C@@H]([C@H]23)[C@H]1CCCC(=O)N1CCN(c2ccc(F)cc2)CC1,inactive
6,COC(=O)[C@@H]1Cc2nc[nH]c2CN1C(=O)c1ccc(-c2ccccc2)cc1,"inconclusive: 79.4 µM [inhibitor, partial curve]"
7,OC1CN(Cc2ccccc2)CCN(c2nc(-c3ccccc3)no2)C1 (stereo unspecified),active: 39.8 µM
8,O=C(O)Cn1ccc2cc(OCc3cccc(-c4ccccc4O)c3)cnc21,"inconclusive: 79.4 µM [inhibitor, partial curve, poor fit]"
9,COc1cccc(-c2cc3c(=O)n(CCNC(=O)c4cc(C)cc(C)c4)ccn3n2)c1,"inconclusive: 15.8 µM [inhibitor, partial curve]"
10,COc1cc(F)ccc1-c1ccnc2nc(CC(C)C)nn12,inactive
11,CNc1nc(C(=O)N2CCc3nc(-c4ccccc4)[nH]c3C2)cs1,"inconclusive: 44.7 µM [inhibitor, partial curve]"
12,O=C(NCCN1CCCCC1)c1ccc(-c2ccc(N3CCCCC3)nc2)cc1,"inconclusive: 44.7 µM [inhibitor, partial curve]"
13,CCOc1ccc(CC(=O)NCCn2ccn3nc(-c4cccc(OC)c4)cc3c2=O)cc1,"inconclusive: 35.5 µM [inhibitor, partial curve]"
14,COc1ccc(-c2ccc3ncc(Nc4ccc(C(N)=O)cc4)n3n2)cn1,inactive
15,COc1ccc(-c2ccc3nc(-c4cccc(F)c4)oc3c2)c(OC)c1OC,"inconclusive: 44.7 µM [inhibitor, partial curve]"
16,COc1cccc(-c2ccc(NC(=O)C3CCCN3C(=O)C3(C)CC3)cc2)c1 (stereo unspecified),"inconclusive: 44.7 µM [inhibitor, partial curve]"
17,Cn1ccnc1CN1C(=O)CO[C@H](c2ccc(NC(=O)COc3ccccc3)cc2)[C@H]1CO,"inconclusive: 44.7 µM [inhibitor, partial curve]"
18,COc1ccc(NC(=O)c2ccc3c(c2)N(C)C2CCCCCN2C3=O)cc1F (stereo unspecified),"inconclusive: 44.7 µM [inhibitor, partial curve]"
19,COc1ncccc1-c1ccnc(-c2nnc(C)n2Cc2ccccc2)c1,"inconclusive: 79.4 µM [inhibitor, partial curve]"
20,Cn1ncc(N2CCC(NC(=O)Cc3ccc(F)cc3)CC2)cc1=O,inactive
21,Cc1cccc2cc(C(=O)N3CC[C@H](CO)[C@H](O)C3)oc12,"inconclusive: 89.1 µM [inhibitor, single point]"
22,COc1ccc(-c2noc([C@@H]3C[C@H](NCc4ccc(S(C)(=O)=O)cc4)CN3C)n2)cc1,active: 44.7 µM

row,Compound,Potency
1,Cc1cc(C2CCCN2C(=O)c2cc(F)ccc2F)on1 (stereo unspecified),inactive
2,COc1cccc(NC(=O)N2CCN3C(=O)N(Cc4ccc(C)cc4)C[C@H]3C2)c1,"inconclusive: 89.1 µM [inhibitor, partial curve]"
3,COc1cccc(-c2ncc3c(n2)OCCN(Cc2ccc(F)cc2F)C3=O)c1F,active: 15.8 µM
4,O=C(COc1cccc(-c2nnc3n2CCCC3)c1)Nc1ccc(Br)cc1,"inconclusive: 44.7 µM [inhibitor, partial curve]"
5,CCn1cc(CN(C)CC2(O)CCCN(Cc3ccc(C(C)C)cc3)C2=O)cn1 (stereo unspecified),inactive
6,Cc1ccc(C(=O)N2CCC(CCC(=O)N3CCCCC3)CC2)cc1,active: 28.2 µM
7,CN(Cc1ccc(-c2ccccc2)cc1)Cc1ccnn1C,"inconclusive: 44.7 µM [inhibitor, partial curve]"
8,Cc1ccc(C2=NC3(CCN(C(=O)c4ccc(C)s4)CC3)ON2)cc1,"inconclusive: 50.1 µM [inhibitor, partial curve]"
9,O=C(CC[C@@H]1CNC(=O)[C@@H]2C[C@H](NC(=O)Nc3ccccc3)CN12)Nc1ccccc1,"inconclusive: 89.1 µM [inhibitor, partial curve, poor fit]"
10,COc1ccc(NC(=O)N2CCc3c(C(=O)NCCN4CCCCCC4)cccc32)cc1,active: 1.58 µM
11,COc1ccccc1-c1[nH]nc2ncc(-c3cccc(CO)c3)nc12,"inconclusive: 17.8 µM [inhibitor, full curve]"
12,O=C(Nc1ccccc1)Nc1ccc([C@@H](O)[C@H]2COCC(=O)N2Cc2ccc(F)cc2)cc1,"inconclusive: 79.4 µM [inhibitor, partial curve, poor fit]"
13,Cn1cc(CNC(=O)C[C@@H]2C[C@H]3O[C@H](CNCc4cnccc4C(F)(F)F)[C@@H](O)[C@H]3O2)cn1,inactive
14,CC(=O)N1CC2(CCN(C(=O)c3ccc(C)s3)CC2)CC1C(=O)O (stereo unspecified),inactive
15,COc1ccc(-c2cc3c(=O)n(CCNC(=O)c4ccoc4)ccn3n2)cc1,"inconclusive: 28.2 µM [inhibitor, partial curve]"
16,CCCN(CC1CCOC1)C(=O)Nc1ccc(C)cc1 (stereo unspecified),"inconclusive: 44.7 µM [inhibitor, partial curve, poor fit]"
17,O=C(NC1CCCc2c1[nH]c1ccccc21)c1cn(C2CC2)c(=O)c2ccccc12 (stereo unspecified),inactive
18,COc1cccc(-c2cc3c(=O)n(CC(O)c4ccccc4)ccn3n2)c1 (stereo unspecified),active: 3.55 µM
19,O=C1c2c(nc(COc3cccc(F)c3)n2Cc2ccccc2)NCCN1CCOc1ccccc1,inactive
20,O=c1c2nc(-c3ccoc3)ccc2ncn1Cc1ccccc1,"inconclusive: 79.4 µM [inhibitor, partial curve, poor fit]"
21,Cc1ccc2oc(N3CCCC4(CCC(=O)N(Cc5cccnc5)C4)C3)nc2c1 (stereo unspecified),inactive
22,C[C@@H]1C(=O)O[C@H]2[C@H]1CC[C@@]1(C)Cc3sc(NS(=O)(=O)c4ccc(Cl)cc4)nc3[C@@H](C)[C@H]21,"inconclusive: 79.4 µM [inhibitor, single point]"

row,Compound,Potency
1,O=C(NC1CCCN(c2cc(-c3ccccc3)[nH]n2)C1)c1cnccn1 (stereo unspecified),"inconclusive: 79.4 µM [inhibitor, partial curve]"
2,COc1ccc(-n2nc(C)c([C@@H]3C=C[C@@H](NC(=O)Nc4cccc(C#N)c4)C3)c2C)cc1,active: 7.94 µM
3,Cn1cc(CCNC(=O)c2ccc3oc(-c4cccc(F)c4)nc3c2)cn1,"inconclusive: 100 µM [inhibitor, single point]"
4,CCc1cccc2c(C(CC(=O)N3CCCC3)c3cccc([N+](=O)[O-])c3)c[nH]c12 (stereo unspecified),inactive
5,Cc1cccc(-c2noc([C@@H]3Cc4nc[nH]c4CN3C(=O)CCC(=O)O)n2)c1,"inconclusive: 50.1 µM [inhibitor, partial curve]"
6,COc1ccc(-c2nc3ncccc3[nH]2)cc1,active: 12.6 µM
7,O=C([C@H]1C[C@H](Oc2ccccc2)CN1C(=O)c1cc(F)ccc1F)N1CCOCC1,"inconclusive: 31.6 µM [inhibitor, single point]"
8,COc1ccc(-c2noc([C@@H]3CCCN3C(=O)c3ccccc3Cl)n2)cc1,"inconclusive: 39.8 µM [inhibitor, partial curve]"
9,CC(C)c1nc2c(NC(=O)Nc3cccc(Cl)c3)cccn2n1,"inconclusive: 31.6 µM [inhibitor, partial curve]"
10,COc1ccc(C(=O)Nc2ccc3c(c2)CN(Cc2ccc(OC)cc2OC)C(=O)CO3)cc1,"inconclusive: 44.7 µM [inhibitor, partial curve]"
11,CCn1nc(-c2ccc3c(c2)OCO3)nc1N(C)C,"inconclusive: 56.2 µM [inhibitor, partial curve]"
12,CN1C[C@@H](NS(C)(=O)=O)C[C@H]1c1nc(-c2ccc(Cl)cc2)no1,"inconclusive: 89.1 µM [inhibitor, partial curve]"
13,COCCN1CCCC2(CCN(C(=O)Cn3cccnc3=O)C2)C1=O (stereo unspecified),inactive
14,Cc1ccc(OCC(=O)c2ccc3c(c2)N(CCCC(=O)N2CCOCC2)C(=O)CO3)c(Cl)c1,"inconclusive: 35.5 µM [inhibitor, partial curve]"
15,Cc1nnc(-c2cc(-c3cnn(C)c3)ccn2)n1Cc1ccccc1,inactive
16,CN(C)c1ccc(C(=O)N2CCC(n3cc(-c4nc(-c5ccccc5)no4)nn3)C2)cc1 (stereo unspecified),"inconclusive: 44.7 µM [inhibitor, partial curve]"
17,CCn1cc(CN(C)C(=O)c2cc(-c3ccc(OC)cc3)cn2CC)c(C)n1,active: 39.8 µM
18,O=C1c2cnc(-c3ccc(CO)cc3)nc2OCCN1c1cccc(C(F)(F)F)c1,"inconclusive: 70.8 µM [inhibitor, full curve, poor fit]"
19,O=C(Nc1cccc(F)c1)c1cc2n(n1)CC(c1ccc(Br)cc1)OC2 (stereo unspecified),"inconclusive: 39.8 µM [inhibitor, partial curve, poor fit]"
20,COc1ccc(C(CC(=O)N2CCCC2)c2c[nH]c3ccccc23)cc1 (stereo unspecified),"inconclusive: 50.1 µM [inhibitor, partial curve]"
21,O=C(NCc1ccc(F)cc1F)C1CCN(C(=O)c2ncn3c2COC(c2ccc(F)cc2)C3)CC1 (stereo unspecified),"inconclusive: 50.1 µM [inhibitor, partial curve]"
22,O=C(NCCc1ccccc1)Nc1cccn2ncnc12,"inconclusive: 39.8 µM [inhibitor, partial curve]"
